The full ranking holds about 33,000 sequences; the median of “E-score (-0.5 to 0.5)” is about -0.041, and the highest 2% start at about 0.37. The list shows a part of the results.
These sequences were tested against T1, Ecm22 (UniProt Q05958) (assay: PBM E-score (8-mer binding enrichment) (E-score (-0.5 to 0.5)); higher = stronger / more preferred TF binding; most listed sequences are background and not binding sites). Settings: protein concentration: 200 nM; construct: GST-full length.
T1 sequence: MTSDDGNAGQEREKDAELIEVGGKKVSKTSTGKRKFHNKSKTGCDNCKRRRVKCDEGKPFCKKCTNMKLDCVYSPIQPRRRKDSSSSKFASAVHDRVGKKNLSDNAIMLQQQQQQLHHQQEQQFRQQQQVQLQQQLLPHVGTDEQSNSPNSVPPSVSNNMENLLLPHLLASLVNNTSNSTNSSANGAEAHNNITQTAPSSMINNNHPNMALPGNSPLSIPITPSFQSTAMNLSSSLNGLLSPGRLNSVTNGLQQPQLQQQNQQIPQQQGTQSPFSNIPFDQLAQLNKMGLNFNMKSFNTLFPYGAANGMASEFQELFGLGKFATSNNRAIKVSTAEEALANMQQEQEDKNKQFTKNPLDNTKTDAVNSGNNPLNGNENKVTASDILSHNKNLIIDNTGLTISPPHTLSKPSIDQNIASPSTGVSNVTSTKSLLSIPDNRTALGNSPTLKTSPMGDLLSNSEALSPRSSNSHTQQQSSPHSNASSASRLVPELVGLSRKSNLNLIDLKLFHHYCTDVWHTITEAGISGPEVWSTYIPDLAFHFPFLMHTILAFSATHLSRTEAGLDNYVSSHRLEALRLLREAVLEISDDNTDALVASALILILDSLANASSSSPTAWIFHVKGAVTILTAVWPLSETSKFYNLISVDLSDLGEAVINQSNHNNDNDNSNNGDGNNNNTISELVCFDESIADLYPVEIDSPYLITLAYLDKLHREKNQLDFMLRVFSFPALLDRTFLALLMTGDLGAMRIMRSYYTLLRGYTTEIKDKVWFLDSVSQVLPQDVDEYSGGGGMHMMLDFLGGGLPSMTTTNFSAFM
Outline: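 E-scores (a modified Wilcoxon-Mann-Whitney statistic) were assigned by the Universal PBM Analysis Suite to every ungapped eight-base word pooled with its reverse complement. The input came from universal all-10-mer Agilent arrays made double-stranded by primer extension and probed with GST-tagged yeast transcription factors at about 100-200 nM. Fluorescent anti-GST detected bound protein, and masliner normalised the scans.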

Row | Sequence | PBM E-score
1 | CCCGTCCC | -0.203
2 | CAAGGCTC | -0.267
3 | GTAACTGA | -0.0854
4 | CGAGCATA | 0.217
5 | CATTACAA | -0.00807
6 | AAACTGGA | -0.124
7 | CAGTATGG | 0.0519
8 | TCAACCGA | 0.24
9 | CCACAGTC | -0.189
10 | CAGCGTAA | 0.0696
11 | CGATCGTC | 0.104
12 | AAACATAT | 0.185
13 | CCGTGAGC | -0.134
14 | ACCGTTCC | 0.434
15 | AGAGACGA | 0.121
16 | GCAGTGGC | -0.119
17 | CACCAGTA | -0.342
18 | ATAGGGGC | -0.237
19 | GAACTGGC | -0.125
20 | AGAAGAGC | -0.129
21 | CCGAATCG | 0.206
22 | AGACCACA | -0.157
23 | ACTACGCG | 0.0858
24 | AAACGTCG | 0.318
25 | AATTATGT | -0.118

Row | Sequence | PBM E-score
26 | AGATCGCA | 0.121
27 | AACAGTCC | -0.255
28 | AGGAAGCG | 0.121
29 | GGCGGGCA | -0.264
30 | ACGGACCT | 0.164
31 | CCGCACCC | 0.00227
32 | CGCCGACC | -0.0626
33 | ACGCCCAG | -0.143
34 | CGAAGAGA | 0.195
35 | AGGCATCA | -0.308
36 | TCAGATAA | -0.112
37 | AGAAAGCT | -0.0203
38 | CCGCTAGA | -0.246
39 | CTGGATGA | -0.2
40 | GGGACTGA | -0.253
41 | AGAAGGTG | -0.0146
42 | GGGGTAAA | -0.0088
43 | AGTAGGAG | -0.327
44 | AATCCGTA | 0.207
45 | GCACCCTA | -0.149
46 | AATCTTTC | -0.042
47 | GTATGAAC | 0.234
48 | AATCACTG | 0.0296
49 | GCTGGGAC | -0.174
50 | ACACTCGG | 0.209

Row | Sequence | PBM E-score
51 | ATACACTG | 0.0426
52 | GACATACC | -0.182
53 | AGGTCTGG | -0.203
54 | AAGACACT | -0.00082
55 | CGCGAGCG | 0.176
56 | ATGAGAAT | -0.0978
57 | ATATACCC | -0.0184
58 | AGTTCTTA | -0.125
59 | CGCACGAG | -0.0614
60 | CTATACAG | 0.0413
61 | CACGTCTA | -0.185
62 | GGTTATAC | 0.352
63 | CACTGCTC | -0.159
64 | CGGTGCGC | -0.0201
65 | GGCTCTGA | -0.157
66 | ATCACTTA | -0.064
67 | GTGGGGCA | 0.0451
68 | ATTAATCG | 0.207
69 | TCTCATCA | -0.216
70 | CTGTAGGC | -0.209
71 | CTTACTTA | -0.194
72 | CACGTTAC | -0.046
73 | CTACACTA | -0.074
74 | GGTGTAAA | -0.139
75 | ATAGTTAC | 0.0999

Row | Sequence | PBM E-score
76 | AACCAACC | -0.138
77 | ACAGGTCG | -0.0344
78 | AATTGTGG | -0.112
79 | CTACGGCA | 0.1
80 | GATTTAAC | 0.0377
81 | GTCGTTCA | 0.448
82 | CCGGCCAA | -0.11
83 | GGTTTCTA | -0.0898
84 | CTGTGTTA | 0.0507
85 | ATTATCCA | 0.0479
86 | CTACATAC | 0.00127
87 | CGGCGAGA | 0.118
88 | ATGCCACC | -0.143
89 | ATTATAGC | -0.098
90 | CCTGCATC | -0.0617
91 | AATGCCAG | -0.221
92 | ACGATACT | 0.313
93 | ATGCGTAG | 0.00117
94 | TATATGCA | -0.0352
95 | CGCCAGCA | -0.0703
96 | GTAGTAGA | 0.0331
97 | CAACAACA | -0.0129
98 | CAGTGGAC | -0.178
99 | ATGCCTCA | -0.104
100 | CGGAGCAG | 0.0775

Row | Sequence | PBM E-score
101 | GCTGGCGA | 0.00693
102 | TAGTCGAA | -0.0259
103 | AGTACGAA | 0.42
104 | CCAATGTC | -0.155
105 | ACCGGACC | 0.238
106 | GGTCAAAA | 0.016
107 | CCCAGGGC | -0.339
108 | CATGGCTC | 0.00071
109 | CATGTGAA | -0.25
110 | GGAATGTA | 0.0494
111 | GACTCTGC | -0.00998
112 | CTACCTAA | -0.072
113 | AGCTGGAC | -0.188
114 | AAAACTAC | 0.12
115 | AACAGGAT | -0.258
116 | AAAAGGAA | 0.123
117 | GGGCCAAC | -0.241
118 | CTTTGGCA | -0.144
119 | GCGTCCCC | -0.389
120 | CATGGTGA | -0.036
121 | CGCTCGAG | -0.0217
122 | AGGGTGGC | -0.225
123 | ACTCGCCT | 0.00923
124 | CTACTCCA | 0.0216
125 | GACTGAGA | 0.0567

Row | Sequence | PBM E-score
126 | ACCGACCT | 0.0975
127 | CCCTAGTA | -0.126
128 | CTCCACGC | -0.228
129 | GATAACAA | -0.0404
130 | GAAGACTA | -0.0278
131 | GATGGCCC | -0.193
132 | GCTACTTA | -0.102
133 | ACTAACGG | -0.141
134 | ATGGCGTA | 0.182
135 | CGACATAA | 0.227
136 | AGCTATAC | 0.124
137 | ACCGATGG | 0.0239
138 | GAAGTTGC | 0.0168
139 | CTCGCAGC | 0.0777
140 | GTAGGCCA | -0.0732
141 | AGATGCTC | 0.0786
142 | CAGTGGCG | -0.168
143 | ACGTGTTG | 0.112
144 | CGTCCCAG | -0.339
145 | AACCTGAC | -0.0885
146 | AGGACTCA | -0.0869
147 | AGACCTCA | -0.228
148 | ATGGCTCA | -0.138
149 | AATGTCCT | -0.094
150 | CGCATGCC | 0.0989

Row | Sequence | PBM E-score
151 | CACGATCA | -0.00633
152 | ACCTGCGG | -0.16
153 | AGGTACTC | -0.0124
154 | AGCTGAAA | -0.106
155 | ACTCGTGC | 0.0518
156 | GAAGTTTA | 0.0811
157 | AGTCGGCG | 0.0443
158 | GAGGGATC | -0.0216
159 | CCCAACGA | -0.0238
160 | ACCTTAGT | -0.211
161 | GACGACTC | -0.0985
162 | TAAGCAGA | -0.188
163 | CCAACGCA | -0.125
164 | ATCCTAAA | 0.0576
165 | GGACATGA | -0.0431
166 | ACAACTAA | 0.0503
167 | GCAAGTCA | -0.117
168 | ACTGACAA | -0.101
169 | ACCTAATA | 0.229
170 | TCGGGGCA | -0.073
171 | TCATCGGA | -0.0141
172 | GTGCTTAA | -0.096
173 | CCAGAAGG | -0.136
174 | GACCTCCC | -0.144
175 | ACATTTTC | -0.055

Row | Sequence | PBM E-score
176 | ATCGTCAC | -0.00661
177 | TAGGATAA | 0.0736
178 | CGCTAACC | 0.0848
179 | AAATAAGG | 0.0436
180 | AGCTCCAC | -0.105
181 | AGGAAGAC | -0.25
182 | ACACGATG | 0.17
183 | GGTATAAC | 0.0372
184 | GCATTAAC | 0.0478
185 | ACGCCTCA | -0.176
186 | ATCGGCGC | 0.0415
187 | GTTACTTA | -0.0193
188 | AGTTTTAG | -0.164
189 | GCGCCCGA | 0.0828
190 | AAGACGCA | -0.186
191 | CACCAGAG | -0.0293
192 | TAGCGACA | 0.191
193 | CAGCTCGG | 0.131
194 | GTATCGGA | 0.199
195 | ACACGAAT | 0.217
196 | AAGCCAGA | -0.18
197 | AACCTAAT | -0.0523
198 | ATTCCGCG | -0.0423
199 | ACTACCGA | 0.0453
200 | CTGCCTGA | -0.168

Row | Sequence | PBM E-score
201 | AATATGAA | -0.149
202 | CACGGAAA | 0.0529
203 | ATCACAAT | 0.00653
204 | GAGTCCGC | -0.199
205 | TAGATGGA | -0.14
206 | GGACGCAC | -0.122
207 | GTAGAATA | 0.0292
208 | TCCACGCA | -0.0188
209 | CTAGCAAC | 0.118
210 | ACGTGACG | -0.0464
211 | AGCAGACA | -0.178
212 | CACAAAGG | -0.0764
213 | ACGGACAT | 0.141
214 | CCACAGCC | -0.0882
215 | CCCAGTCC | -0.236
216 | CCCACTGA | -0.165
217 | GTGACATA | -0.131
218 | CTCCAGAG | -0.298
219 | CCTCCTAG | -0.245

Reference: the supplement of paper PMC3334620
